Test results as given in PubChem BioAssay AID602233 (National Center for Advancing Translational Sciences (NCATS), 2012).
Hit rate of the full screen: of about 380,000 compounds, about 170 (0.045%) were called active. The inconclusive results got no clear call from the source; some entries with a clear call stand among them for comparison. Calls come from the whole dose curve; as a rule, active = well fitted inhibition curve with a large enough effect; inconclusive = small, poorly fitted or top-dose-only effect; inactive = no such curve, though single readings can be large or run the other way. Potencies of inconclusive entries are left out as doubtful fits.

molecular target: Phosphoglycerate kinase, glycosomal (Trypanosoma brucei brucei) (UniProt P07378); experiment: qHTS Assay to Find Inhibitors of Phosphoglycerate Kinase; details: PGK/GAPDH coupled, Kinase-Glo luminescence, 60 min; series mostly up to 57.5 µM; activity change, negative = inhibition: at the top concentration; note: nearly all actives have a fitted effect of over 60% in size
Outline: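 Luminescent ATP detection (Kinase-Glo Plus) follows a 60-minute room-temperature incubation, with wells lacking PGK as controls. Buffer: 100 mM TEA (pH 7.6), 5 mM MgCl2, 0.01% Tween-20. Coupling enzyme GAPDH (100 nM final) supplies unstable 1,3-BPG in-well.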
% is set by controls: 0 for no effect and ±100 for the full control effect; potency is the fitted concentration of half-maximal effect; tags give direction and shape of the fitted curve.

Row | Structure (SMILES) | Potency | outcome | activity change, negative = inhibition
1 | CCOc1cc(/C=N/N=C2/NC(=O)C(CC(=O)O)S2)ccc1OS(=O)(=O)c1ccc(C)cc1 (centres undefined) | inconclusive [inhibitor, partial curve] |  | 
2 | O=C(COc1ccc2c(c1)OCO2)Nc1nccs1 | inconclusive [inhibitor, partial curve] |  | 
3 | COc1cccc(N=C2NC(=O)/C(=C/c3cc([N+](=O)[O-])ccc3O)S2)c1 | inconclusive [inhibitor, partial curve, poor fit] |  | 
4 | Cc1ccc(NC(=S)N(CCN(C)C)C(C)c2ccco2)cc1C (centres undefined) | inconclusive [inhibitor, partial curve] |  | 
5 | Cc1ccc(N=Cc2c(C)[nH]n(-c3nc4ccccc4[nH]3)c2=O)cc1 | inconclusive [inhibitor, partial curve, poor fit] |  | 
6 | CC(=O)OCCCNc1cc(Sc2ccc(C)cc2)c2nonc2c1[N+](=O)[O-] |  | inactive | 
7 | CS(=O)(=O)Nc1ccc(C2=NN(C(=O)c3ccco3)C(c3ccc(F)cc3)C2)cc1 (centres undefined) |  |  | inactive: -9.99%
8 | COc1ccccc1NC(=O)CN1CCN(CC(=O)Nc2ccc(Cl)c(C(F)(F)F)c2)CC1 |  |  | inactive: -1.99%
9 | NS(=O)(=O)c1ccc(CNC(=O)/C=C/c2ccco2)cc1 | inconclusive [inhibitor, partial curve] |  | 
10 | O=C(Cn1cnc2sc(-c3ccccc3)cc2c1=O)NCc1ccco1 | active: 12.6 µM |  | 
11 | Cc1ccc(Cl)c(NC(=S)N(CCCN2CCOCC2)Cc2ccco2)c1 | inconclusive [inhibitor, partial curve] |  | 
12 | COC(=O)C1=C(C)N(CCCC(=O)O)C(=O)NC1c1ccc(Br)cc1 (centres undefined) |  | inactive | 
13 | O=C(COC(=O)Cc1cccc(C(F)(F)F)c1)NCc1ccco1 | inconclusive [inhibitor, partial curve] |  | 
14 | Cc1nnc(NC(=O)Cc2cccs2)s1 | inconclusive [inhibitor, single point] |  | 
15 | COc1ccc(NC(=O)C2CCCO2)cc1 (centres undefined) |  | inactive | 
16 | O=C(O)c1cccc(S(=O)(=O)Nc2ccc3c(c2)CCC3)c1 | inconclusive [inhibitor, single point] |  | 
17 | CCC(=O)N1c2ccccc2CC1C(=O)NCCCN1CCN(c2ccc(OC)cc2)CC1 (centres undefined) | inconclusive [inhibitor, partial curve, poor fit] |  | 
18 | O=C(c1ccc(F)cc1)c1cc2ccc(O)cc2oc1=O | inconclusive [inhibitor, single point] |  | 
19 | CN(C)S(=O)(=O)c1cccc(NC(=S)N/N=C/c2cccc(O)c2)c1 |  |  | inactive: 7.87%
20 | COc1cc(CCN2C(=O)c3cccc4cccc(c34)C2=O)c(S(=O)(=O)N2CCC(C)CC2)cc1OC |  |  | inactive: -3.7%
21 | CCCCN(C)CCNC(=O)c1ccc(Cn2c(=O)[nH]c3cc(OC)c(OC)cc3c2=O)cc1 |  |  | inactive: -9.07%
22 | N#Cc1c(NC(=O)C2CC=CCC2C(=O)O)sc2c1CCCCCC2 (centres undefined) | inconclusive [inhibitor, single point] |  | 
23 | O=C1OCCN1C(=O)[C@H]1[C@H](c2ccc([N+](=O)[O-])cc2)C(c2ccc(F)cc2)=NN1c1ccc(Br)cc1 |  |  | inactive: 6.15%

Row | Structure (SMILES) | Potency | outcome | activity change, negative = inhibition
24 | O=C(CN1CCN(c2ccccc2)CC1)NC(=O)NCc1ccco1 |  |  | inactive: 0.286%
25 | CC[n+]1ccc(/C=C/c2ccc(N(C)C)cc2)c2ccccc21 | inconclusive [inhibitor, partial curve, poor fit] |  | 
26 | O=c1cc(CO)oc(CN2CCN(Cc3ccccc3)CC2)c1O |  | inactive | 
27 | Cc1ccsc1/C=N\NC(=O)c1n[nH]c2c1CCC2 | inconclusive [inhibitor, partial curve] |  | 
28 | CN(CC(=O)Nc1ccccc1Br)C(=O)CCCSc1nc2ccccc2[nH]1 |  |  | inactive: -2.28%
29 | Cc1cnc(NC(=O)c2ccccn2)s1 | inconclusive [inhibitor, partial curve, poor fit] |  | 
30 | Cc1ccccc1NC(=O)Cc1nc(COC(=O)c2cccc([N+](=O)[O-])c2)cs1 | inconclusive [inhibitor, single point] |  | 
31 | O=C(Cn1cnc([N+](=O)[O-])c1)NCCc1ccccc1 |  |  | inactive: 3.44%
32 | O=c1[nH]n2c(=O)c3c([nH]c2c1N=Nc1cccc(Cl)c1)CCCC3 | inconclusive [inhibitor, partial curve] |  | 
33 | N#CC(c1cccc(Cl)c1)c1ccc2c(C(F)(F)F)cc(C(F)(F)F)nc2n1 (centres undefined) | inconclusive [inhibitor, partial curve, poor fit] |  | 
34 | Cc1cccc(SCc2noc(C(=O)NCC3CCCO3)c2C(=O)O)c1 (centres undefined) |  |  | inactive: 0.799%
35 | O=C(O)c1ccc2c(c1Nc1ccccc1)C(=O)c1ccccc1C2=O | inconclusive [inhibitor, single point] |  | 
36 | O=C(COc1ccc(Cl)cc1Cl)Nc1ccccn1 | inconclusive [inhibitor, partial curve, poor fit] |  | 
37 | Cc1cccc(C)c1NC(=O)CSc1nnc(-c2ccco2)c(-c2ccco2)n1 | inconclusive [inhibitor, partial curve, poor fit] |  | 
38 | Cc1nn2c(C)c(C(=O)NCCc3ccccc3)cnc2c1-c1ccccc1 | inconclusive [inhibitor, single point] |  | 
39 | COc1ccccc1NC(=O)Nc1ccnn1C1CCCCC1 |  |  | inactive: -1.58%
40 | CCn1c(=O)c2cc(C(=O)N(C)c3ccccc3F)sc2c2ccccc21 |  |  | inactive: -5.56%
41 | c1cn2cc(-c3ccc4c(c3)OCO4)nc2s1 |  |  | inactive: -3.61%
42 | CC(C)CCN1C(=O)c2ccc(C(=O)Nc3ccc(Br)cc3C(=O)O)cc2C1=O |  |  | inactive: -15.5%
43 | CCC(=O)N1CCc2cc(CNS(=O)(=O)c3ccc(CC(C)C)cc3)ccc21 |  |  | inactive: -7.57%
44 | CSc1ccc(C2NN=C(c3ccccc3)S2)cc1 (centres undefined) | inconclusive [inhibitor, partial curve, poor fit] |  | 
45 | CCOc1ccc(NC(=S)N2CCN(CCN3C(=O)c4cccc5cccc(c45)C3=O)CC2)cc1 | inconclusive [inhibitor, single point] |  | 
46 | Cc1ccc2[nH]c(=O)c(CN(CCCN3CCOCC3)C(=O)Nc3ccc(Cl)cc3)cc2c1 | inconclusive [inhibitor, partial curve, poor fit] |  | 

Row | Structure (SMILES) | Potency | outcome | activity change, negative = inhibition
47 | CCN1CCN(C(c2ccccc2Cl)c2sc3nc(-c4ccco4)nn3c2O)CC1 (centres undefined) |  |  | inactive: -1.6%
48 | O=C(CCC1N=C2c3ccccc3N=C(SCc3ccc(Cl)cc3)N2C1=O)NCc1cccs1 (centres undefined) |  |  | inactive: 10.9%
49 | COc1ccc(N2Cc3ccccc3C2=O)cc1 | inconclusive [inhibitor, partial curve, poor fit] |  | 
50 | COc1cc(OC)c(OC)cc1/C=C1\Oc2cc(OS(C)(=O)=O)ccc2C1=O | inconclusive [inhibitor, partial curve, poor fit] |  | 
51 | COc1ccc(-c2nnn(CC(=O)NC3CCCc4ccccc43)n2)cc1OC (centres undefined) |  |  | inactive: 2.64%
52 | O=C(COC(=O)c1ccccc1)c1ccc2c(c1)OCCO2 | inconclusive [inhibitor, partial curve] |  | 
53 | C#CCOCCOCCOCCNc1nc(N2CCN(C(=O)[C@H]([C@@H](C)CC)n3cc([C@@H](N)CO)nn3)CC2)nc(N2CCN(C(=O)[C@H]([C@@H](C)CC)n3cc([C@@H](N)CC(C)C)nn3)CC2)n1 |  | inactive | 
54 | O=C(CSc1nc(-c2cccs2)nc2cc(=O)[nH]n12)Nc1ccccc1 | inconclusive [inhibitor, single point] |  | 
55 | CC(=O)OCC1=C(C(=O)O)N2C(=O)C(NC(=O)C(C)Cn3nc(C)c(Cl)c3C)C2SC1 (centres undefined) | inconclusive [inhibitor, partial curve] |  | 
56 | COc1ccccc1N(CC(=O)N1CCC(C(N)=O)CC1)S(=O)(=O)c1ccccc1 | inconclusive [inhibitor, partial curve, poor fit] |  | 
57 | COc1ccc(NC(=S)N2CCN(C)CC2)cc1 | inconclusive [inhibitor, single point] |  | 
58 | CSc1nc(C)c2c(n1)N(c1ccc(O)cc1)CC2 | inconclusive [inhibitor, single point] |  | 
59 | CCCOc1ccc(/C=N/Nc2ccccc2[N+](=O)[O-])c(O)c1 | inconclusive [inhibitor, single point] |  | 
60 | C=CCOc1ccc(Br)cc1/C=C1/SC(=Nc2ccc(C(=O)O)cc2)NC1=O | inconclusive [inhibitor, single point] |  | 
61 | Cc1ccsc1/C=N/Nc1nc(=O)[nH]nc1C | active: 28.2 µM |  | 
62 | CCc1nnc(NS(=O)(=O)c2ccc(NC(=S)NC(=O)/C=C/c3ccc(OC)cc3)cc2)s1 | inconclusive [inhibitor, partial curve] |  | 
63 | COCCNC(=O)/C(C#N)=C/c1ccc(O)cc1 | inconclusive [inhibitor, partial curve, poor fit] |  | 
64 | CC(C)c1ccc(NC(=O)C[n+]2ccn(C3=C([O-])c4ccccc4C3=O)c2)cc1 |  |  | inactive: -3.68%
65 | O=C1CSC(=S)N1/N=C/c1cc(Br)c(O)c(Br)c1 | inconclusive [inhibitor, single point] |  | 
66 | COCCCNC(=O)/C(C#N)=C/c1ccc(OCC(=O)O)c(OC)c1 | inconclusive [inhibitor, single point] |  | 
67 | CC(=O)OCC(=O)c1c[nH]c2ccccc12 |  |  | inactive: 5.54%
68 | O=C1c2cccc(OCc3ccc(F)cc3)c2CCN1Cc1ccccc1 |  |  | inactive: 0.659%
69 | O=C(O)c1ccccc1NS(=O)(=O)c1ccc(NN=Cc2ccccc2F)c([N+](=O)[O-])c1 | inconclusive [inhibitor, single point] |  | 
